Laboratory results as given in patent publication US20230235013A1 (MABSOLVE, published 2023).

B1: anti-CD52 human IgG1 L234A/L235A (LALA) (antibody)
heavy: QVQLQESGPGLVRPSQTLSLTCTVSGFTFTDFYMNWVRQPPGRGLEWIGFIRDKAKGYTTEYNPSVKGRVTMLVDTSKNQFSLRLSSVTAADTAVYYCAREGHTAAPFDYWGQGSLVTVSS[letters of human IgG1 constant region with changes omitted]
light: DIQMTQSPSSLSASVGDRVTITCKASQNIDKYLNWYQQKPGKAPKLLIYNTNNLQTGVPSRFSGSGSGTDFTFTISSLQPEDIATYYCLQHISRPRTFGQGTKLEIKRTVAAPSVFIFPPSDEQLKSGTASVVCLLNNFYPREAKVQWKVDNALQSGNSQESVTEQDSKDSTYSLSSTLTLSKADYEKHKVYACEVTHQGLSSPVTKSFNRGEC
notes: also called 4-65; copies: 2 + 2
B2: anti-CD52 human IgG1 N297Q (aglycosyl) (antibody)
heavy: QVQLQESGPGLVRPSQTLSLTCTVSGFTFTDFYMNWVRQPPGRGLEWIGFIRDKAKGYTTEYNPSVKGRVTMLVDTSKNQFSLRLSSVTAADTAVYYCAREGHTAAPFDYWGQGSLVTVSS[letters of human IgG1 constant region with changes omitted]
light: B1 light
notes: also called 4-67; copies: 2 + 2
B3: anti-CD52 human IgG1 L234A/L235A/P329G (LALAPG reference) (antibody)
heavy: QVQLQESGPGLVRPSQTLSLTCTVSGFTFTDFYMNWVRQPPGRGLEWIGFIRDKAKGYTTEYNPSVKGRVTMLVDTSKNQFSLRLSSVTAADTAVYYCAREGHTAAPFDYWGQGSLVTVSSASTKGPSVFPLAPSSKSTSGGTAALGCLVKDYFPEPVTVSWNSGALTSGVHTFPAVLQSSGLYSLSSVVTVPSSSLGTQTYICNVNHKPSNTKVDKKV[letters of human IgG1 Fc with changes omitted]
light: B1 light
notes: also called 4-66; copies: 2 + 2

Biological target: T1, Sheep Fc-CD52 fusion protein (Absolute Antibody Cat. No. PR00205) (human, UniProt P31358 25-36)
T1 construct: bought; also called CD52 antigen; human CD52; not shown: sheep Fc
Experiment: ELISA, antigen coated, antibody 5 µg/mL

| Binder | Mean Absorbance [absorbance] |
| --- | --- |
| B1 | 1.24 |
| B2 | 1.36 |
| B3 | 1.35 |
